Reference: the BET-seq Pho4 binding data (Le et al. 2018)
The other results are listed elsewhere or left out. The energies were worked out here from pooled read counts, against the library average; single values are noisy.

Biological target: T1, Pho4 (S. cerevisiae) (UniProt P07270)
T1 sequence: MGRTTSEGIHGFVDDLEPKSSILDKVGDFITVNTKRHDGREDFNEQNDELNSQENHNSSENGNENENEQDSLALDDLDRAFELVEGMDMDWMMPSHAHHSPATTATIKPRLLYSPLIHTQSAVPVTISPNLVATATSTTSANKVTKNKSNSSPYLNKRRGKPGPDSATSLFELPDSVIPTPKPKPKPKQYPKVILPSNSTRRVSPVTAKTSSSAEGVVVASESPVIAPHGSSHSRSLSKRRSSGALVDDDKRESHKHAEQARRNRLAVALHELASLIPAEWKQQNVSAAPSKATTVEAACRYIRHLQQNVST
Assay: relative binding free energy (BET-seq); higher = weaker binding
Details: reference: library average

Sequence	relative binding free energy [kcal/mol]
ATGGCCACGTGGTTCT	-0.12
CGTTGCACGTGTGGGC	0.17
TTTGACACGTGGAGAT	-0.08
TGTCTCACGTGGGGAC	0.1
GGACTCACGTGCGGTG	0.15
AGTGCCACGTGTCGGG	-0.06
ATGTGCACGTGGTCTG	-0.12
GTCTGCACGTGATTGG	0.18
ATACTCACGTGGTATG	0.11
TGTTACACGTGGTAGC	-0.06
AGGGCCACGTGCTGGG	-0.27
ATGGTCACGTGTACAG	0.1
GTGCTCACGTGTTATT	0.22
ATTTTCACGTGGGCGT	0.15
GCAGCCACGTGTGTGG	0.02
ATTATCACGTGGAGGA	0.16
AGTGACACGTGTTATG	0
TTTCGCACGTGCGGGA	-0.1
CAATGCACGTGTTGTA	-0.03
AGATACACGTGTGGAG	0.11
TTATACACGTGGTGAG	0.06

Sequence	relative binding free energy [kcal/mol]
TGGAGCACGTGCCAGG	-0.1
GTATGCACGTGCCGGG	-0.06
GCGGTCACGTGAGTGG	0.38
TCAGACACGTGGTATT	0.06
TAATACACGTGAGGTA	0.15
GAGGACACGTGATTAG	0.28
GATGTCACGTGGCGGG	0.08
ATGGCCACGTGGGCTT	-0.15
GGACTCACGTGAGTTT	0.48
TGGGTCACGTGATTTA	0.21
GGAGTCACGTGTGCTA	0.21
ATAGGCACGTGTTAGT	-0.09
TGGTACACGTGTAAGA	0.19
CGGAGCACGTGGGGCG	-0.27
GTTTGCACGTGTGAGC	0.14
TTATTCACGTGTAACG	0.29
AGAGTCACGTGGGTAT	0.12
CGTGCCACGTGTGAGG	-0.09
GTAAACACGTGGGTTA	-0.02
AAAGGCACGTGCTGGG	-0.11
ATATTCACGTGTGGTA	0.3

Sequence	relative binding free energy [kcal/mol]
TTATTCACGTGTATCT	0.22
TTAGCCACGTGTAGTA	-0.04
AAGGGCACGTGTGCGG	-0.13
AAGTGCACGTGAGGTT	0.2
GCGATCACGTGTAAGG	0.3
AGAGACACGTGGTAGT	-0.01
GTTTTCACGTGAGGAG	0.33
GTTGTCACGTGGTTGC	0.16
GTGTTCACGTGTTGGC	0.39
GCTTTCACGTGTTCTT	0.3
TGGTACACGTGGAAGC	0.21
GGTCGCACGTGGGATG	-0.09
AGGGACACGTGTCGAG	0
TGATTCACGTGAAGAT	0.4
TCGAGCACGTGGGTGG	-0.16
AGTAGCACGTGTATGC	-0.08
TCTTGCACGTGATGCG	0.13
TGGCGCACGTGTCGAG	0.09
GTGGGCACGTGTCATT	-0.14
TCTAACACGTGTAGGG	0.13
GTTTCCACGTGAGGTA	0.39
